# In paper PMC12820563, “FoxP3 forms a head-to-head dimer in vivo and stabilizes its multimerization on adjacent microsatellites”:
# The list shows a part of the results.
# Target: T1, MBP-FoxP1dN (Mus musculus, UniProt P58462 326-579)
# T1 sequence: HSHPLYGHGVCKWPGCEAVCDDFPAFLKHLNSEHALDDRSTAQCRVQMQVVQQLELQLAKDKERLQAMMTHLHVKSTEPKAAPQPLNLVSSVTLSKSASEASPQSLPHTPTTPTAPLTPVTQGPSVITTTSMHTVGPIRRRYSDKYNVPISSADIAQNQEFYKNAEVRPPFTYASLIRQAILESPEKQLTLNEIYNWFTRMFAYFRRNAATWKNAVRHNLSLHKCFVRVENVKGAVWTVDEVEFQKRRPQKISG
# Experiment: PD-seq (MBP pull-down with sequencing); 20 mM Tris-HCl pH 7.5, 100 mM NaCl, 1.5 mM MgCl2, 0.4 uM protein, 0.1 uM dsDNA library, 30 min, room temperature, amylose pull-down; high values mean tight binding
# Conditions: protein: recombinant; tags: His6-MBP; chain copies: 2; dsDNA, one strand shown
# Procedure, shortened: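 E. coli-expressed mouse FoxP3 or FoxP1 fragment, N-terminus removed and tagged with His6-MBP, was used at 0.4 µM against 0.1 µM of a Klenow-filled degenerate double-stranded DNA library. After 30 min at room temperature in Tris pH 7.5 buffer with NaCl and MgCl2, complexes were pulled down on amylose resin and washed three times. Binding is pull-down over input reads-per-million enrichment from pooled replicates of the proteinase K-released, PCR-barcoded, Illumina-sequenced DNA.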
row,Sequence,binding signal
1,GATGATTGTTCTCCCAGCTGATGAATTAGCACCGTCGAGTAAACAAATTTTCCTAATCTTTCTGTTCAAGCGCCATCTAC,0.962 RPM ratio (pull-down/input)
2,GATGATTGTTCTCCCAGCTGATGAATTCGCTAGTTCGAGTAAACAAATTTTCCTAATCTTTCTGTTCAAGCGCCATCTAC,0.856 RPM ratio (pull-down/input)
3,GATGATTGTTCTCCCAGCTGATGAATTTTAGTTCTCGAGTAAACAAATTTTCCTAATCTTTCTGTTCAAGCGCCATCTAC,0.894 RPM ratio (pull-down/input)
4,GATGATTGTTCTCCCAGCTGATGAATTGAGTTGGTCGAGTAAACAAATTTTCCTAATCTTTCTGTTCAAGCGCCATCTAC,0.91 RPM ratio (pull-down/input)
5,GATGATTGTTCTCCCAGCTGATGAATTAGGTAACTCGAGTAAACAAATTTTCCTAATCTTTCTGTTCAAGCGCCATCTAC,0.918 RPM ratio (pull-down/input)
6,GATGATTGTTCTCCCAGCTGATGAATTCAATAGATCGAGTAAACAAATTTTCCTAATCTTTCTGTTCAAGCGCCATCTAC,0.887 RPM ratio (pull-down/input)
7,GATGATTGTTCTCCCAGCTGATGAATTACTGGGTTCGAGTAAACAAATTTTCCTAATCTTTCTGTTCAAGCGCCATCTAC,0.938 RPM ratio (pull-down/input)
8,GATGATTGTTCTCCCAGCTGATGAATTAAGGAGATCGAGTAAACAAATTTTCCTAATCTTTCTGTTCAAGCGCCATCTAC,0.85 RPM ratio (pull-down/input)
9,GATGATTGTTCTCCCAGCTGATGAATTCGGCAGCTCGAGTAAACAAATTTTCCTAATCTTTCTGTTCAAGCGCCATCTAC,0.875 RPM ratio (pull-down/input)
10,GATGATTGTTCTCCCAGCTGATGAATTGGAATCATCGAGTAAACAAATTTTCCTAATCTTTCTGTTCAAGCGCCATCTAC,0.933 RPM ratio (pull-down/input)
11,GATGATTGTTCTCCCAGCTGATGAATTCTGAAAGTCGAGTAAACAAATTTTCCTAATCTTTCTGTTCAAGCGCCATCTAC,0.87 RPM ratio (pull-down/input)
12,GATGATTGTTCTCCCAGCTGATGAATTGGGCCTGTCGAGTAAACAAATTTTCCTAATCTTTCTGTTCAAGCGCCATCTAC,0.806 RPM ratio (pull-down/input)
13,GATGATTGTTCTCCCAGCTGATGAATTGTTAGGTTCGAGTAAACAAATTTTCCTAATCTTTCTGTTCAAGCGCCATCTAC,1.05 RPM ratio (pull-down/input)
14,GATGATTGTTCTCCCAGCTGATGAATTAAGGGACTCGAGTAAACAAATTTTCCTAATCTTTCTGTTCAAGCGCCATCTAC,0.785 RPM ratio (pull-down/input)
15,GATGATTGTTCTCCCAGCTGATGAATTCGAGCTCTCGAGTAAACAAATTTTCCTAATCTTTCTGTTCAAGCGCCATCTAC,0.781 RPM ratio (pull-down/input)
16,GATGATTGTTCTCCCAGCTGATGAATTGTGGTGGTCGAGTAAACAAATTTTCCTAATCTTTCTGTTCAAGCGCCATCTAC,1.06 RPM ratio (pull-down/input)
17,GATGATTGTTCTCCCAGCTGATGAATTACCTCTATCGAGTAAACAAATTTTCCTAATCTTTCTGTTCAAGCGCCATCTAC,0.951 RPM ratio (pull-down/input)
18,GATGATTGTTCTCCCAGCTGATGAATTTCGAGTATCGAGTAAACAAATTTTCCTAATCTTTCTGTTCAAGCGCCATCTAC,0.998 RPM ratio (pull-down/input)
19,GATGATTGTTCTCCCAGCTGATGAATTTGAAATATCGAGTAAACAAATTTTCCTAATCTTTCTGTTCAAGCGCCATCTAC,0.972 RPM ratio (pull-down/input)
20,GATGATTGTTCTCCCAGCTGATGAATTTCCGAGGTCGAGTAAACAAATTTTCCTAATCTTTCTGTTCAAGCGCCATCTAC,0.721 RPM ratio (pull-down/input)

row,Sequence,binding signal
1,GATGATTGTTCTCCCAGCTGATGAATTCTTTGCTTCGAGTAAACAAATTTTCCTAATCTTTCTGTTCAAGCGCCATCTAC,0.901 RPM ratio (pull-down/input)
2,GATGATTGTTCTCCCAGCTGATGAATTAGAGGCCTCGAGTAAACAAATTTTCCTAATCTTTCTGTTCAAGCGCCATCTAC,0.968 RPM ratio (pull-down/input)
3,GATGATTGTTCTCCCAGCTGATGAATTCTACGAGTCGAGTAAACAAATTTTCCTAATCTTTCTGTTCAAGCGCCATCTAC,0.776 RPM ratio (pull-down/input)
4,GATGATTGTTCTCCCAGCTGATGAATTGTGCGAATCGAGTAAACAAATTTTCCTAATCTTTCTGTTCAAGCGCCATCTAC,1.1 RPM ratio (pull-down/input)
5,GATGATTGTTCTCCCAGCTGATGAATTAATCCCTTCGAGTAAACAAATTTTCCTAATCTTTCTGTTCAAGCGCCATCTAC,0.898 RPM ratio (pull-down/input)
6,GATGATTGTTCTCCCAGCTGATGAATTTGTTACGTCGAGTAAACAAATTTTCCTAATCTTTCTGTTCAAGCGCCATCTAC,1.25 RPM ratio (pull-down/input)
7,GATGATTGTTCTCCCAGCTGATGAATTCGAACGATCGAGTAAACAAATTTTCCTAATCTTTCTGTTCAAGCGCCATCTAC,0.851 RPM ratio (pull-down/input)
8,GATGATTGTTCTCCCAGCTGATGAATTTAAACAGTCGAGTAAACAAATTTTCCTAATCTTTCTGTTCAAGCGCCATCTAC,1.06 RPM ratio (pull-down/input)
9,GATGATTGTTCTCCCAGCTGATGAATTGGACTATTCGAGTAAACAAATTTTCCTAATCTTTCTGTTCAAGCGCCATCTAC,0.893 RPM ratio (pull-down/input)
10,GATGATTGTTCTCCCAGCTGATGAATTAGTGCTATCGAGTAAACAAATTTTCCTAATCTTTCTGTTCAAGCGCCATCTAC,1.15 RPM ratio (pull-down/input)
11,GATGATTGTTCTCCCAGCTGATGAATTACCTGAGTCGAGTAAACAAATTTTCCTAATCTTTCTGTTCAAGCGCCATCTAC,0.889 RPM ratio (pull-down/input)
12,GATGATTGTTCTCCCAGCTGATGAATTAGAAGGCTCGAGTAAACAAATTTTCCTAATCTTTCTGTTCAAGCGCCATCTAC,0.8 RPM ratio (pull-down/input)
13,GATGATTGTTCTCCCAGCTGATGAATTATAAGCTTCGAGTAAACAAATTTTCCTAATCTTTCTGTTCAAGCGCCATCTAC,0.917 RPM ratio (pull-down/input)
14,GATGATTGTTCTCCCAGCTGATGAATTCCTTGGTTCGAGTAAACAAATTTTCCTAATCTTTCTGTTCAAGCGCCATCTAC,0.835 RPM ratio (pull-down/input)
15,GATGATTGTTCTCCCAGCTGATGAATTATGAGGTTCGAGTAAACAAATTTTCCTAATCTTTCTGTTCAAGCGCCATCTAC,0.872 RPM ratio (pull-down/input)
16,GATGATTGTTCTCCCAGCTGATGAATTGCGCGGCTCGAGTAAACAAATTTTCCTAATCTTTCTGTTCAAGCGCCATCTAC,0.972 RPM ratio (pull-down/input)
17,GATGATTGTTCTCCCAGCTGATGAATTGGGAAGATCGAGTAAACAAATTTTCCTAATCTTTCTGTTCAAGCGCCATCTAC,0.839 RPM ratio (pull-down/input)
18,GATGATTGTTCTCCCAGCTGATGAATTCGCCACATCGAGTAAACAAATTTTCCTAATCTTTCTGTTCAAGCGCCATCTAC,0.978 RPM ratio (pull-down/input)
19,GATGATTGTTCTCCCAGCTGATGAATTTTAGTTATCGAGTAAACAAATTTTCCTAATCTTTCTGTTCAAGCGCCATCTAC,1.18 RPM ratio (pull-down/input)
20,GATGATTGTTCTCCCAGCTGATGAATTGAACACTTCGAGTAAACAAATTTTCCTAATCTTTCTGTTCAAGCGCCATCTAC,0.934 RPM ratio (pull-down/input)
